Source: PubChem BioAssay AID995 (National Center for Advancing Translational Sciences (NCATS), 2007)
About 710 (0.99%) of roughly 72,000 compounds were called active. This list was built around the results that the source calls inconclusive (neither active nor inactive); the mix of calls is not that of the screen. The call rests on the fitted dose curve; in most records, active means well fitted inhibition curve with a large enough effect; inconclusive means small, poorly fitted or top-dose-only effect; inactive means no such curve, though single readings can be large or run the other way. A potency beside an inconclusive call is a rough fit, not a confirmed value.

Test: qHTS Assay for Inhibitors of the ERK Signaling Pathway using a Homogeneous Screening Assay; further: nearly all actives have a fitted effect of over 55% in size
Conditions: HEK293-V1b, vasopressin-stimulated pERK AlphaScreen; activity, negative = inhibition: at 57.5 µM (top of the series) unless noted
Summary of the method: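 V1b-HEK293 cells; cpd 30 min 37C; 25 nM vasopressin 5 min; lyse 10 min; AlphaScreen beads 5 hr RT. Normalized to DMSO basal and 25 nM vasopressin; AC50 by Hill fit.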
On the % scale 0 is the no-effect control and ±100 the full control effect; potency means the concentration at half of the fitted maximal effect; tags describe the fitted curve by direction and shape.

Potency, inconclusive:
COc1cc(-c2cc(OC)c3c(C)oc(C)c3c(=O)c2)ccc1O 39.8 µM [inhibitor, single point], Cc1ccc(Nc2cc(C)nc3nc(C)nn23)c(C)c1 3.98 µM [inhibitor, partial curve, poor fit], CCn1c2ccccc2c2cc(N)ccc21 3.16 µM [inhibitor, full curve], COC(=O)c1cc(=O)n(Cc2ccco2)c(=Nc2ccc(F)c(Cl)c2)s1 3.16 µM [inhibitor, full curve], COc1ccc(-c2cc(C(=O)OCC(=O)N3CCCC3)c3ccccc3n2)cc1 12.6 µM [inhibitor, partial curve, poor fit], CCN(CC)S(=O)(=O)c1csc(C(=O)NCc2ccccc2)c1 25.1 µM [inhibitor, partial curve], O=C(Nc1ccc2c(c1)nc1n2CCSC1)c1ccccc1 20 µM [inhibitor, single point], CCOC(=O)c1cccc(NC(=O)CSc2nc3ccccc3c(=O)n2CCOC)c1 20 µM [inhibitor, partial curve], O=C(Nc1cccnc1N1CCOCC1)c1ccco1 39.8 µM [inhibitor, single point], COc1cc2c(cc1OC)/C(=C/C(=O)N1CCOCC1)NC(C)(C)C2 10 µM [inhibitor, partial curve], COc1ccc2c(c1)c(=O)oc1cc(OCC(=O)N3CCC(C)CC3)ccc12 25.1 µM [inhibitor, single point], COc1ccc(-c2cc(=O)[nH]c(NCc3ccccc3)n2)cc1 31.6 µM [inhibitor, partial curve], CN(Cc1ccco1)c1ncnc2ccc(-c3cccc(NS(C)(=O)=O)c3)cc12 10 µM [inhibitor, partial curve], Cc1cc(N2CCOCC2)c2c(N)c(Br)cc(C)c2n1 7.94 µM [inhibitor, full curve], Cc1noc(C)c1-c1cc(N2CCN(C)CC2)ncn1 20 µM [inhibitor, partial curve], CCCCCCCCCCCCCCCCCC(=O)O[C@H](CC(=O)O)C[N+](C)(C)C 39.8 µM [inhibitor, single point], O=C(Nc1cccc(Cl)c1)N(CCN1CCOCC1)Cc1cccc(Cl)c1 25.1 µM [inhibitor, single point], CCSc1ccccc1C(=O)Nc1nncs1 7.94 µM [inhibitor, partial curve], CCOC(=O)c1[nH]c2cc(OC)c(OC)cc2c1NC(=O)CN(C)C1CCCCC1 2 µM [inhibitor, full curve, poor fit], Cc1ccc2nsnc2c1S(=O)(=O)N1CCN(CCc2ccccc2)CC1 15.8 µM [inhibitor, partial curve], CS(=O)(=O)N1CCCC(C(=O)NCc2ccco2)C1 (stereo not drawn) 20 µM [inhibitor, partial curve, poor fit], CCOC(=O)c1c(COc2ccccc2)oc2ccc(O)cc12 39.8 µM [inhibitor, single point], COC(=O)c1ccc(Cn2cnc3c(cnn3-c3ccc(Cl)cc3)c2=O)o1 15.8 µM [inhibitor, partial curve], CCOC(=O)Cc1csc(NC(=O)c2cccc(OC)c2)n1 15.8 µM [inhibitor, partial curve], COCCNc1ncnc2ccc(-c3ccccc3C(F)(F)F)cc12 12.6 µM [inhibitor, partial curve], COc1ccc(-n2cnnc2SCc2ncc(-c3ccccc3)o2)cc1 31.6 µM [inhibitor, single point], COc1ccc2ncn(-c3ccccc3)c2c1 25.1 µM [inhibitor, partial curve, poor fit], CCOc1ccc2cc(C#N)c(SCC(=O)N3CCOCC3)nc2c1 25.1 µM [inhibitor, single point], CCN1C(=O)CC(N2CCC(Nc3ccc(F)cc3)CC2)C1=O (stereo not drawn) 0.794 µM [inhibitor, partial curve], Cc1cc(C)n(-c2nncn2NC(=O)c2ccc(Cl)cc2O)n1 39.8 µM [inhibitor, single point], C#C[C@@]1(O)CC[C@@H]2[C@@H]3CCC4=C(CCC(=O)C4)[C@H]3CC[C@]21C 12.6 µM [inhibitor, partial curve, poor fit], CCC(c1nnnn1Cc1ccccc1)N1CCN(C(=O)c2ccco2)CC1 (stereo not drawn) 7.94 µM [inhibitor, single point], CC1CCCC(NC(=O)c2cn(C)c3ccc(S(=O)(=O)N4CCCC4)cc3c2=O)C1C (stereo not drawn) 39.8 µM [inhibitor, single point], O=C(Nc1ccc(S(=O)(=O)N2CCOCC2)cc1)c1ccc(Br)o1 20 µM [inhibitor, single point], CCOc1ccccc1NC(=O)CSc1nnc(-c2cnccn2)n1CC 25.1 µM [inhibitor, single point], Cc1cc2c(N=O)c(NO)ccc2[nH]1 25.1 µM [inhibitor, partial curve], CC(=O)Nc1cc(OC(C)=O)c2nonc2c1OC(C)=O 39.8 µM [inhibitor, single point], N#CC1=C(N)N(c2ccccc2)C2=C(C(=O)CCC2)C1c1ccsc1 (stereo not drawn) 7.94 µM [inhibitor, partial curve], Cc1cc(C(=O)OCn2nnc3ccccc3c2=O)c(C)n1-c1ccccc1 25.1 µM [inhibitor, single point], C=CCn1c(NC(=O)c2ccc(C)cc2)c(C#N)sc1=N 15.8 µM [inhibitor, partial curve], Cc1ccc(NS(=O)(=O)c2ccc(CCC(=O)N3CCOCC3)cc2)cc1 39.8 µM [inhibitor, single point], Cc1ccc(/C=N/c2sc3c(c2C#N)CCCCC3)o1 31.6 µM [inhibitor, partial curve, poor fit], COc1cccc(Cn2c(=O)c(-c3ccc(F)cc3)nc3cncnc32)c1 12.6 µM [inhibitor, partial curve], Cc1cccc(N=C2NC(=O)/C(=C3/C(=O)N(C)c4ccccc43)S2)c1C 3.16 µM [inhibitor, full curve], Cc1coc(C)c1C(=O)CC1(O)C(=O)N(Cc2ccccc2)c2ccccc21 (stereo not drawn) 12.6 µM [inhibitor, partial curve], O=c1c2ccccc2sn1-c1cc(S(=O)(=O)N2CCOCC2)ccc1N1CCOCC1 25.1 µM [inhibitor, partial curve], O=C(NCc1ccccn1)C1COc2ccccc2O1 (stereo not drawn) 12.6 µM [inhibitor, partial curve]

Potency, inactive:
CN(C)C(=O)c1ccc(-c2nccc(N(C)Cc3ccco3)n2)cc1, CC[C@H](C)C(=O)O[C@H]1CCC=C2C=C[C@H](C)[C@H](CC[C@@H]3C[C@H](O)CC(=O)O3)[C@H]21, COc1ccccc1-c1cc(-n2ccnc2)ncn1, Brc1ccc(-c2nnc(-c3ccc4c(c3)OCO4)o2)o1, CC(=O)CC(=O)Nc1ccccc1, C=CCn1c(SCC(=O)c2ccc(O)c(O)c2)nnc1-c1ccccc1OC, CCCCCc1c(O)c2ccccc2[nH]c1=O, Cc1noc(C)c1-c1nccc(N2CCOCC2)n1, CCCc1cc(C(N)=O)c(NC(=O)C2CCCO2)s1 (stereo not drawn), COc1cc(N[C@@H](C)CCCN)c2ncccc2c1, COc1ccc(C(=O)N2CCC[C@@]3(CCN(c4ccccc4)C3)C2)cc1, COc1ccc2[nH]cc(CCNc3ncncc3-c3ccccc3OC)c2c1, C=CCc1cccc(C2Nc3ccccc3C(=O)N2O)c1O (stereo not drawn), COC(=O)c1ccc(C(NC(=O)OCc2ccccc2)/C(=C/[C@@H](C)C(=O)NCc2ccc(OC)c(O)c2)c2cccnc2)cc1 (stereo partly drawn), COc1cc(OC)cc(-c2cc3nc4c(c(N5CCN(c6cnccn6)CC5)n3n2)CCCC4)c1, CCCc1nc2sc3ccccc3c(=O)c2c(=O)n1Cc1ccco1, CCOC(=O)CCc1c(C)c2ccc(OC(C)C(=O)OCC)c(C)c2oc1=O (stereo not drawn)

Potency, active:
c1ccc(-c2nc3nonc3nc2-c2ccccc2)cc1 12.6 µM

activity, negative = inhibition, inactive:
CC(C)=C[C@H]1[C@@H](COC(=O)c2cc3c(cc2Cl)OCO3)C1(C)C 46.9% [at 11.5 µM], O=C1/C(=C/c2ccccc2)[C@@H](NC2CCCCC2)c2ccccc21 -27.2% [at 11.5 µM]

activity, negative = inhibition, inconclusive:
Cc1ccc(C(=O)Nc2ccc(S(=O)(=O)O)c3cc(S(=O)(=O)O)cc(S(=O)(=O)O)c23)cc1NC(=O)c1cccc(NC(=O)Nc2cccc(C(=O)Nc3cc(C(=O)Nc4ccc(S(=O)(=O)O)c5cc(S(=O)(=O)O)cc(S(=O)(=O)O)c45)ccc3C)c2)c1 -32.5% [inhibitor]
